Some of the results follow.
B1: 101445554_101445674_1705_3pUTR_ENSMUSG00000001175_ENSMUST00000110082|mouse|control|control (ssRNA)
RNA: GGGAGUUCUACAGUCCGACGAUCGUCUGGUUUCAGGAGUUGUGGCUAGAGAACCUGGUGGGAAAUCCAGCUUGCACUGGAUGUUGCGUGUCUCUGUGUAUGCUGACCUCCCCUCCAGCGGCCUUGGCCUUGUCCCCCUUCCAACAACAGAGGAUUGAGCAUCA
B2: chr19:8913615:8913616:-_ENSMUSG00000071658_ENSMUST00000096259|mus_hu|mus_mus_mus_hu_False|58_108 (ssRNA)
RNA: GGGAGUUCUACAGUCCGACGAUCAGGGGGGCACCAACUUCUGCCUGAAAUGGGUGCCCCACCCAGUAGGGAGUUGCAGCUAAAAAUAUCUGAUGCAGAAGCAGUGACUAUACGAAAGGAGGCCCCUGGGGAGGGCCAGGCCAGCAACAGAGGAUUGAGCAUCA
B3: chrX:71549762:71549763:+_ENSMUSG00000019087_ENSMUST00000019231|mus_mus|mus_mus_mus_hu_False|1_18 (ssRNA)
RNA: GGGAGUUCUACAGUCCGACGAUCAAACCCGUGUACUUCUUAUUGUUAGCACAACAUCACCAGAAAACGAUAACGACAGCCAAGCAGGACAGACAGUUAAGUAGUACUUCCACACUCCGCAAAUUCAGGAGCCCUAUAGUUCAUCAACAGAGGAUUGAGCAUCA
B4: chr1:39494564:39494565:+_ENSG00000168653_ENST00000372967|hu_hu|hu_hu_hu_mus_True|48_58 (ssRNA)
RNA: GGGAGUUCUACAGUCCGACGAUCAUGCAUUCGCCUCAUCGUUUUGUACCGAAGCAAGCACUCUUCGAAGUCAUCGAAUUCUAUCUUGCACUCUUUCUUCGCCCGGGUCCCACCGAUCCCGUGUGCACACUCUAUCCACUCUUUCAACAGAGGAUUGAGCAUCA
B5: 156574219_156574339_2710_ncRNA_ENSMUSG00000061689_ENSMUST00000127944|mouse|control|control (ssRNA)
RNA: GGGAGUUCUACAGUCCGACGAUCCGCUCAUGUGUCCACCCACCUGCCCCGCCCAGCCCCCACACCUGAGCCACCACCCACACCCACACCCGGCUUGGUUAUUAGAAAUCCAGCAAGGAGAAGUGGGUUAGGGAGAGCAGGAGACAACAGAGGAUUGAGCAUCA
B6: chr4:25749455:25749456:-_ENSG00000091490_ENST00000264868|hu_hu|hu_hu_hu_mus_False|28_108 (ssRNA)
RNA: GGGAGUUCUACAGUCCGACGAUCGCAAGCACUAGGAUAGAAAAAUCCACAGGGGGAAAAAAUGUAAACCAAUGUACAAUGUUAUCGCCUUCCCUGUGUGUGGAGUGACAAACAAUUGGCUCCUUCUAGCUGCUGGAUUUGGGACAACAGAGGAUUGAGCAUCA
B7: chr2:163839756:163839757:+_ENSMUSG00000018326_ENSMUST00000018470|mus_hu|FALSE|FALSE (ssRNA)
RNA: GGGAGUUCUACAGUCCGACGAUCUUUCAUUUUCAAGUAGAACACCUUACUUUCUGGUUGUGUAGCAUUGGGAAUAAGAUAUUUGUCCAACAGCUCCAGAACAUCAUUGCAGAUGUCCUGCAGUUCUGCCUCUAUCUUCUCACGCAACAGAGGAUUGAGCAUCA
B8: chr12:16048344:16048345:+_ENSG00000023734_ENST00000419869|hu_hu|hu_hu_hu_mus_True|8_98 (ssRNA)
RNA: GGGAGUUCUACAGUCCGACGAUCAGAUCGUCCAUAAGUUAUAACCAAAAUCUCUCCUUCAGGAAUAUACUCCAUGCUGCUAACAGACAUAUUAAAAUUCAGAGAUUUCACUUCUGUCAUUGUGGCAUGAUCCCAAAGCCGAACCAACAGAGGAUUGAGCAUCA
B9: chr18:48447474:48447475:+_ENSG00000082212_ENST00000321341|hu_mus|motif|central (ssRNA)
RNA: GGGAGUUCUACAGUCCGACGAUCCCAGAUCUUUCUCUGCGCCUCCUCUUCUGAGAGACCACUUUCCACCAUUGAUAGAACGGUGAGAUUGGCAAUUCCAAGUGCAGCUUCUCCUGCUCCAAGAAAUAAGAUUUUGUGUUCUGACAACAGAGGAUUGAGCAUCA
B10: chr2:122485053:122485054:-_ENSG00000155438_ENST00000285814|hu_hu|motif|central (ssRNA)
RNA: GGGAGUUCUACAGUCCGACGAUCUCAACUUUCUAUCCAGGCAGAGUAAACUAAGGAGAGCUAUGAAAUAUCAAAAGAAAACGGGAGGCCAGGACAAAGAGGCAAUGUCAGCCAAGCCACUGCAAGAUGGUAUGCACCCCUGUACAACAGAGGAUUGAGCAUCA
B11: chr13:42873775:42873776:+_ENSG00000023516_ENST00000025301|hu_hu|motif|central (ssRNA)
RNA: GGGAGUUCUACAGUCCGACGAUCAGAAGACGAAAAAAAUGUUUUCUGUAAAUCACUAUCUUUAUCUGAAGCAUUAGAUGACCGGUAGAAACUCCUUUGGGUCCAAGGCUCUGAAAUUGAUGUUGUGACUGAAGUUUUCACAGACAACAGAGGAUUGAGCAUCA
B12: chr19:36145531:36145532:+_ENSG00000126267_ENST00000246554|hu_mus|FALSE|FALSE (ssRNA)
RNA: GGGAGUUCUACAGUCCGACGAUCAUCCCAGGCUGAGACCCAUGACACGGGACAGAGGGACUUGUACACACGCCGGUACCACUCACACACGGAGACAUCACCCCCCUUGGCCGUCAUUGCCUUCUCACAGCGGUGGAAGUCCAGCAACAGAGGAUUGAGCAUCA
B13: chr19:16212804:16212805:+_ENSG00000167460_ENST00000300933|hu_mus|hu_hu_hu_mus_False|28_48 (ssRNA)
RNA: GGGAGUUCUACAGUCCGACGAUCAACAAUUCUGGAGUGAAGGAAAGAUGUAACAUGGAACAGCAUUAAAGCUCAGUCAGAAGGCACGUGGGUAAUUAUGAUCACCCCCCAAGCAUUGCUUGGAAUGCUUAAAGACAAUCUGUUCAACAGAGGAUUGAGCAUCA
B14: chr18:32579733:32579734:+_ENSMUSG00000024381_ENSMUST00000025239|mus_hu|FALSE|FALSE (ssRNA)
RNA: GGGAGUUCUACAGUCCGACGAUCCUUGUGGAAGUUUUCCUCCAGGCCCGCGAUGCUCUGGAACGUGUUGACGUAGAAACCUACGCGGCUGUUCCACAGGGACGGCAGCUCCUCCUGCAGAUCCACAUUCAUCUCCUCAAACACCAACAGAGGAUUGAGCAUCA
B15: chr3:10015032:10015033:+_ENSMUSG00000027533_ENSMUST00000029046|mus_mus|mus_mus_mus_hu_True|8_28 (ssRNA)
RNA: GGGAGUUCUACAGUCCGACGAUCGUUUUUACCAUCACAAGUGAUGAUACAAUCUGGCUUGGCCAUUGCGCCCAUUUUUCGCAAAGCUAUUCCCACUCCUAGCUCCUUCAUGUACUCAUCAAAGCCUUGGCUUUCCACCAGGCGCAACAGAGGAUUGAGCAUCA
B16: chr1:163295886:163295887:+_ENSG00000143228_ENST00000271452|hu_hu|FALSE|FALSE (ssRNA)
RNA: GGGAGUUCUACAGUCCGACGAUCGGUUUUUACCAUCAGCUCCUGUUAAGAUCUUAUUGCGAAUAUGAAUCACAAUCUCAGCUACAUUAUAUCUGGGGAAAGACAAAGUUUCCAUCUUGGAAGUUUCCUGUUAAUCUCCCAGGCCAACAGAGGAUUGAGCAUCA
B17: chr4:34758383:34758384:-_ENSMUSG00000039967_ENSMUST00000047950|mus_mus|FALSE|FALSE (ssRNA)
RNA: GGGAGUUCUACAGUCCGACGAUCUUCAUCAUCUGAACCAUCGUUGUCAUUAAACACUAUGAAAUCUGUUGAAUAAAGACUAUUCUUUUUUAUGGGUCGCUGUUCCUGUUUAGCCACAGUAUUAAUAUUAGUCUUUUGAUUUUCCAACAGAGGAUUGAGCAUCA
B18: chr3:148802587:148802588:-_ENSG00000071794_ENST00000310053|hu_mus|hu_hu_hu_mus_False|1_38 (ssRNA)
RNA: GGGAGUUCUACAGUCCGACGAUCUCCAACAACUUGUCCUCUCAUAGUUCCAAAUAAAACCAAAUCUUGCUCUUCAUCACUCGUUAGGAAGUCAUCUGGAGGGAUAAUGUCUUGGAAUUCAAAAUGUGGCAAGAAAGUUGGAUACAACAGAGGAUUGAGCAUCA
B19: chr4:42581876:42581877:-_ENSG00000124406_ENST00000264449|hu_mus|FALSE|FALSE (ssRNA)
RNA: GGGAGUUCUACAGUCCGACGAUCGCCACCAUAGUGUAGAUGGAGGUACCAGUCUUUCCCGGAAUGCCUUCGGUUCCAAAUGGCUGAGCCCACAGAACACACAAGAGACAUGGCAAUUAAGAUGCAAAAUAAAAUCAGAAUUUGCAACAGAGGAUUGAGCAUCA
B20: 56928950_56934448_117_3pUTR_ENSMUSG00000042557_ENSMUST00000167715|mouse|control|control (ssRNA)
RNA: GGGAGUUCUACAGUCCGACGAUCGAUUCCUGGUCAUCCAAACGUCGCUUCAUUCUGCACUCAUGCUCAGGGAUGCACUACAAACUGUUUCAUGUGUGCAAAGGUUCAACUGUGAGAGAUGAAUGAGUUCUGAAGGAGGAUGGUCAACAGAGGAUUGAGCAUCA
B21: chr12:118855022:118855023:+_ENSG00000111707_ENST00000543473|hu_hu|FALSE|FALSE (ssRNA)
RNA: GGGAGUUCUACAGUCCGACGAUCUACACUGGCCCCAAUUAGAAGUUCAAAAACAAAAAUUAAGUUAGGUAGUCAGACAUCUAUAAAUACUAGUAUCCGCAUGAAUGAAAACACCCUGGCUUUGGUAUGGCUACAGAAAUCCAUCAACAGAGGAUUGAGCAUCA
B22: chr12:109046171:109046172:-_ENSG00000110880_ENST00000261401|hu_mus|FALSE|FALSE (ssRNA)
RNA: GGGAGUUCUACAGUCCGACGAUCCUUGCUGCUGAAUGUGUUGAGGUAGUGGACAUAUGGGGAUUCAUCCGUGAUCUCAAAAUAGCGGAUACUGCUGUCACCCUUCCCACAUAAGUAGAUGAUGCUGGUGUCCGGAUCGUAGAACAACAGAGGAUUGAGCAUCA

Biological target: T1, UNK ZnF1-3 (human, UniProt Q9C0B0 31-174)
T1 sequence: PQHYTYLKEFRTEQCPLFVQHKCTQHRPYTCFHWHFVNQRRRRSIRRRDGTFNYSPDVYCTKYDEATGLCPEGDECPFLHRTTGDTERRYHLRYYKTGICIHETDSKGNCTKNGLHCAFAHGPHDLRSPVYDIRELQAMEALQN
Assay: nsRBNS (natural sequence RNA bind-n-seq); RBNS binding buffer (assumed for nsRBNS): 25 mM Tris pH 7.5, 150 mM KCl, 3 mM MgCl2, 0.01% Triton X-100, 500 ug/ml BSA, 20 U/ml SUPERase-In, 4 C; UNK is unkempt and MSI1 is Musashi-1; names of the RNAs are library labels; protein concentration not given here; high values mean tight binding

Binder | binding signal
B1 | 0.524 enrichment R
B2 | 0.908 enrichment R
B3 | 1.54 enrichment R
B4 | 0.662 enrichment R
B5 | 0.695 enrichment R
B6 | 1.38 enrichment R
B7 | 0.562 enrichment R
B8 | 1.34 enrichment R
B9 | 0.712 enrichment R
B10 | 1.73 enrichment R
B11 | 0.868 enrichment R
B12 | 1.32 enrichment R
B13 | 1.12 enrichment R
B14 | 0.702 enrichment R
B15 | 0.696 enrichment R
B16 | 1.08 enrichment R
B17 | 0.418 enrichment R
B18 | 0.822 enrichment R
B19 | 1.94 enrichment R
B20 | 0.96 enrichment R
B21 | 2.14 enrichment R
B22 | 0.666 enrichment R
